# In the supplement of paper PMC8728848:
# The other results are listed elsewhere or left out.
# Key:
# Experiment in all cases: glycan array binding signal (z-score within array); higher = stronger binding
# Conditions in all cases: glycan notation: IUPAC condensed, linker removed
# Fuc(a1-2)[Gal(a1-3)]Gal = target: Fuc(a1-2)[Gal(a1-3)]Gal
# Procedure, shortened: (§1)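 The binding signal is a Z-score computed within each array. Data were drawn from 3228 arrays in the Consortium for Functional Glycomics database, restricted to those with a known protein sequence. Scores were averaged over arrays of the same protein sequence at different concentrations or buffers, and over linkers, and negative values can be taken as non-binding.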
# [1] = target: Fuc(a1-2)[Gal(a1-3)]Gal(b1-3)GlcNAc
# Procedure, shortened: as §1
# [2] = target: Fuc(a1-2)[Gal(a1-3)]Gal(b1-3)GlcNAc(b1-2)Man(a1-3)[Fuc(a1-2)[Gal(a1-3)]Gal(b1-3)GlcNAc(b1-2)Man(a1-6)]Man(b1-4)GlcNAc(b1-4)GlcNAc
# Procedure, shortened: as §1
# [3] = target: Fuc(a1-2)[Gal(a1-3)]Gal(b1-3)GlcNAc(b1-3)GalNAc
# Procedure, shortened: as §1
# [4] = target: Fuc(a1-2)[Gal(a1-3)]Gal(b1-4)Glc
# Procedure, shortened: as §1
# [5] = target: Fuc(a1-2)[Gal(a1-3)]Gal(b1-4)GlcNAc
# Procedure, shortened: as §1
# [6] = target: Fuc(a1-2)[Gal(a1-3)]Gal(b1-4)GlcNAc(b1-2)Man(a1-3)[Fuc(a1-2)[Gal(a1-3)]Gal(b1-4)GlcNAc(b1-2)Man(a1-6)]Man(b1-4)GlcNAc(b1-4)GlcNAc
# Procedure, shortened: as §1
# [7] = target: Fuc(a1-2)[Gal(a1-3)]Gal(b1-4)GlcNAc(b1-2)Man(a1-3)[Fuc(a1-2)[Gal(a1-3)]Gal(b1-4)GlcNAc(b1-2)Man(a1-6)]Man(b1-4)GlcNAc(b1-4)[Fuc(a1-6)]GlcNAc
# Procedure, shortened: as §1
# [8] = target: Fuc(a1-2)[Gal(a1-3)]Gal(b1-4)GlcNAc(b1-3)GalNAc
# Procedure, shortened: as §1
# [9] = target: Fuc(a1-2)[Gal(a1-3)]Gal(b1-4)[Fuc(a1-3)]Glc
# Procedure, shortened: as §1
# [10] = target: Fuc(a1-2)[Gal(a1-3)]Gal(b1-4)[Fuc(a1-3)]GlcNAc
# Procedure, shortened: as §1
# [11] = target: Fuc(a1-2)[Gal(a1-3)]Gal(b1-4)[Fuc(a1-3)]GlcNAc(b1-3)GalNAc
# Procedure, shortened: as §1
# [12] = target: Fuc(a1-2)[Gal(a1-4)]Gal(b1-4)GlcNAc
# Procedure, shortened: as §1
# [13] = target: Fuc(a1-2)[GalNAc(a1-3)]Gal
# Procedure, shortened: as §1
# [14] = target: Fuc(a1-2)[GalNAc(a1-3)]Gal(b1-3)GalNAc(a1-3)[Fuc(a1-2)]Gal(b1-4)GlcNAc
# Procedure, shortened: as §1
# [15] = target: Fuc(a1-2)[GalNAc(a1-3)]Gal(b1-3)GlcNAc
# Procedure, shortened: as §1
# [16] = target: Fuc(a1-2)[GalNAc(a1-3)]Gal(b1-3)GlcNAc(b1-2)Man(a1-3)[Fuc(a1-2)[GalNAc(a1-3)]Gal(b1-3)GlcNAc(b1-2)Man(a1-6)]Man(b1-4)GlcNAc(b1-4)GlcNAc
# Procedure, shortened: as §1
# [17] = target: Fuc(a1-2)[GalNAc(a1-3)]Gal(b1-3)GlcNAc(b1-3)GalNAc
# Procedure, shortened: as §1
# [18] = target: Fuc(a1-2)[GalNAc(a1-3)]Gal(b1-4)Glc
# Procedure, shortened: as §1
# [19] = target: Fuc(a1-2)[GalNAc(a1-3)]Gal(b1-4)GlcNAc
# Procedure, shortened: as §1
# [20] = target: Fuc(a1-2)[GalNAc(a1-3)]Gal(b1-4)GlcNAc(b1-2)Man(a1-3)[Fuc(a1-2)[GalNAc(a1-3)]Gal(b1-4)GlcNAc(b1-2)Man(a1-6)]Man(b1-4)GlcNAc(b1-4)GlcNAc
# Procedure, shortened: as §1
# [21] = target: Fuc(a1-2)[GalNAc(a1-3)]Gal(b1-4)GlcNAc(b1-3)Gal(b1-4)GlcNAc
# Procedure, shortened: as §1
# [22] = target: Fuc(a1-2)[GalNAc(a1-3)]Gal(b1-4)GlcNAc(b1-3)Gal(b1-4)GlcNAc(b1-3)Gal(b1-4)GlcNAc
# Procedure, shortened: as §1
# [23] = target: Fuc(a1-2)[GalNAc(a1-3)]Gal(b1-4)GlcNAc(b1-3)GalNAc
# Procedure, shortened: as §1
# [24] = target: Fuc(a1-2)[GalNAc(a1-3)]Gal(b1-4)[Fuc(a1-3)]GlcNAc
# Procedure, shortened: as §1
# [25] = target: Fuc(a1-2)[GalNAc(a1-3)]Gal(b1-4)[Fuc(a1-3)]GlcNAc(b1-3)GalNAc
# Procedure, shortened: as §1
# [26] = target: Fuc(a1-2)[GalNAc(a1-4)]Gal(b1-4)GlcNAc
# Procedure, shortened: as §1
# [27] = target: Fuc(a1-2)[GalNAc(b1-3)]Gal
# Procedure, shortened: as §1
# Fuc(a1-3)GlcNAc = target: Fuc(a1-3)GlcNAc
# Procedure, shortened: as §1
# [28] = target: Fuc(a1-3)[Gal(b1-4)]Glc6S
# Procedure, shortened: as §1
# [29] = target: Fuc(a1-3)[Gal(b1-4)]GlcNAc
# Procedure, shortened: as §1
# [30] = target: Fuc(a1-3)[Gal(b1-4)]GlcNAc(b1-2)Man(a1-3)[Fuc(a1-3)[Gal(b1-4)]GlcNAc(b1-2)Man(a1-6)]Man(b1-4)GlcNAc(b1-4)GlcNAc
# Procedure, shortened: as §1
# [31] = target: Fuc(a1-3)[Gal(b1-4)]GlcNAc(b1-2)Man(a1-3)[Fuc(a1-3)[Gal(b1-4)]GlcNAc(b1-2)Man(a1-6)]Man(b1-4)GlcNAc(b1-4)[Fuc(a1-6)]GlcNAc
# Procedure, shortened: as §1
# [32] = target: Fuc(a1-3)[Gal(b1-4)]GlcNAc(b1-3)Gal(b1-3)[Fuc(a1-4)]GlcNAc
# Procedure, shortened: as §1
# [33] = target: Fuc(a1-3)[Gal(b1-4)]GlcNAc(b1-3)GalNAc
# Procedure, shortened: as §1
# [34] = target: Fuc(a1-3)[Gal(b1-4)]GlcNAc(b1-4)Gal(b1-4)[Fuc(a1-3)]GlcNAc
# Procedure, shortened: as §1
# [35] = target: Fuc(a1-3)[Gal(b1-4)]GlcNAc(b1-4)Gal(b1-4)[Fuc(a1-3)]GlcNAc(b1-4)Gal(b1-4)[Fuc(a1-3)]GlcNAc
# Procedure, shortened: as §1
# [36] = target: Fuc(a1-3)[Gal(b1-4)]GlcNAc(b1-6)[Gal(b1-3)GlcNAc(b1-3)]Gal(b1-4)Glc
# Procedure, shortened: as §1
binder,measurement,setting,value
"ASAL (Allium sativum), P83886 (protein) MGRTTSSPKAMMRIATVAAILTILASTCMARNVLTNGEGLYAGQSLDVEQYKFIMQDDCNLVLYEYSTPIWASNTGVTGKNGCRAVMQRDGNFVVYDVNGRPVWASNSVRGNGNYILVLQKDRNVVIYGSDIWSTGTYRRSVGGAVVMAMNGTVDGGSVIGPVVVNQNVTAAIRKVGTGAA",glycan array binding signal (z-score),Fuc(a1-2)[Gal(a1-3)]Gal,-0.272
same,glycan array binding signal (z-score),[1],-0.287
same,glycan array binding signal (z-score),[2],-0.202
same,glycan array binding signal (z-score),[3],-0.274
same,glycan array binding signal (z-score),[4],-0.229
same,glycan array binding signal (z-score),[5],-0.269
same,glycan array binding signal (z-score),[6],-0.216
same,glycan array binding signal (z-score),[7],-0.029
same,glycan array binding signal (z-score),[8],-0.201
same,glycan array binding signal (z-score),[9],-0.26
same,glycan array binding signal (z-score),[10],-0.194
same,glycan array binding signal (z-score),[11],-0.257
same,glycan array binding signal (z-score),[12],-0.251
same,glycan array binding signal (z-score),[13],-0.238
same,glycan array binding signal (z-score),[14],-0.266
same,glycan array binding signal (z-score),[15],-0.298
same,glycan array binding signal (z-score),[16],-0.277
same,glycan array binding signal (z-score),[17],-0.186
same,glycan array binding signal (z-score),[18],-0.235
same,glycan array binding signal (z-score),[19],-0.27
same,glycan array binding signal (z-score),[20],-0.283
same,glycan array binding signal (z-score),[21],-0.203
same,glycan array binding signal (z-score),[22],-0.194
same,glycan array binding signal (z-score),[23],-0.268
same,glycan array binding signal (z-score),[24],-0.214
same,glycan array binding signal (z-score),[25],-0.213
same,glycan array binding signal (z-score),[26],-0.122
same,glycan array binding signal (z-score),[27],-0.217
same,glycan array binding signal (z-score),Fuc(a1-3)GlcNAc,-0.238
same,glycan array binding signal (z-score),[28],-0.246
same,glycan array binding signal (z-score),[29],-0.289
same,glycan array binding signal (z-score),[30],-0.228
same,glycan array binding signal (z-score),[31],-0.196
same,glycan array binding signal (z-score),[32],-0.24
same,glycan array binding signal (z-score),[33],-0.26
same,glycan array binding signal (z-score),[34],-0.19
same,glycan array binding signal (z-score),[35],-0.284
same,glycan array binding signal (z-score),[36],-0.329
